Measured values published in PubChem BioAssay AID488969 (Vanderbilt High Throughput Screening Facility, 2010).
The full ranking holds about 110,000 compounds; the median of “z-score” is about -0.1, and the highest 2% start at about 2. The list shows a part of the results. Calls of active or inactive are those of the source.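 Rule for the calls: active = z-score in the third read window above 3 or below -3; inactive = the rest.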

Target: Metabotropic glutamate receptor 8 (Rattus norvegicus) (UniProt P70579)
Test: mGluR8 Gi/Go-coupled signaling modulation – cell-based, rat, thallium flux, HTS, primary screen (AID 488969)
Conditions: HEK293 rat mGluR8, GIRK (G protein-gated inwardly rectifying potassium channel) thallium flux, FluoZin2; at 10 µM; stronger effect = higher value; submaximal glutamate (EC20) added with thallium

Chain of UniProt P70579 (P70579 whole entry, looked up): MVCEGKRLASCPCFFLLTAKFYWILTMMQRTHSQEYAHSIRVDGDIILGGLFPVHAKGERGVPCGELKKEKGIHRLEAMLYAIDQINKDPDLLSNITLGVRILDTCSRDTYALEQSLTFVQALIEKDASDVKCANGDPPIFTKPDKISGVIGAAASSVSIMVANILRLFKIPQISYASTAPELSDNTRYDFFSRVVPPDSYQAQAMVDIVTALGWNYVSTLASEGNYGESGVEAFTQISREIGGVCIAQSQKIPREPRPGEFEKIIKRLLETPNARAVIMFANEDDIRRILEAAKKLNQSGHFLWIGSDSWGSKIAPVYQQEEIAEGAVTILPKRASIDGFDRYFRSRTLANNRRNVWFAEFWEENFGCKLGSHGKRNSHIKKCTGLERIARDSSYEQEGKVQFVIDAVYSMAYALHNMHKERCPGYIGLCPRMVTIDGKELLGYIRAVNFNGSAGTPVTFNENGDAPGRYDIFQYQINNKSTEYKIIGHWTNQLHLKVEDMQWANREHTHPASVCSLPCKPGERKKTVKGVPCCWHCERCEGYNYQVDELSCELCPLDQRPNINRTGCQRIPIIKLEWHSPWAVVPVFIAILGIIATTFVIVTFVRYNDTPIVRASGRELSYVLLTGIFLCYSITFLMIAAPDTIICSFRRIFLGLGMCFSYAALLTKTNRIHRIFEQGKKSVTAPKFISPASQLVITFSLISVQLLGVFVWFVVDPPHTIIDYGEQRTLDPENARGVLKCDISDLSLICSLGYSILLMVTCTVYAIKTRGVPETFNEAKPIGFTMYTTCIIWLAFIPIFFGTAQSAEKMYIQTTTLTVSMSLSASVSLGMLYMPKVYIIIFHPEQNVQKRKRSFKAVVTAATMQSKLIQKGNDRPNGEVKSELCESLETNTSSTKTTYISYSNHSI

SMILES | z-score
CCOP(=O)(c1ccc(N(C)C)cc1)C(O)c1ccc(Cl)cc1 (stereo unspecified) | 1.3
COCCN(C(=O)Cn1nnc2ccccc21)C(C(=O)NC1CCCC1)c1ccc(OC)cc1OC (stereo unspecified) | -0.567
O=C(c1ccc2c(c1)OCO2)N(c1ccccc1)C1C=CS(=O)(=O)C1 (stereo unspecified) | 0.361
COc1cccc(/C=C/C(=O)NCCc2ccc(OC)c(OC)c2)c1 | -0.351
Cc1cc(NC(=O)CSc2nnnn2C)n(-c2ccccc2)n1 | -0.0738
Cc1ccc(C(=O)NC(=S)N2CCN(C)CC2)cc1 | 0.0855
CCOC(=O)CC1C(=O)NCCN1C(=O)c1cccc(C(F)(F)F)c1 (stereo unspecified) | -0.191
Cc1cc(C)c2oc(=O)cc(CN3CCOCC3)c2c1 | -0.0321
CCC(c1nnc(SCC(=O)Nc2ccc(Cl)cc2C(F)(F)F)n1C1CCCCC1)N(C)C (stereo unspecified) | -0.456
COc1cccc(CNC(=O)c2cc3ccccn3n2)c1 | -0.0699
CC(C)C1Nc2ccc(S(N)(=O)=O)cc2C2C=CCC21 (stereo unspecified) | -0.325
CC(C)CNS(=O)(=O)c1ccc(CCC(=O)Nc2ccc3c(c2)OCO3)cc1 | -0.0635
Cc1cc(C)cc(NC(=O)CSc2nnc(CN3CCOCC3)n2C)c1 | 0.0844
COc1ccc(C(=O)N2CCN=C2SCc2cccnc2)cc1OC | 0.402
CS(=O)(=O)Nc1ccc(C(=O)Nc2ccccc2Sc2ccccc2)cc1 | 0.277
CCCSC(=O)N(CC)CC(=O)Nc1c(CC)cccc1CC | -1.38
Cc1cc2c(nn1)CCC/C2=N\O | 0.743
CCN1CCCC1CNC(=O)c1cc(OC)c(OC)c(OC)c1 (stereo unspecified) | -0.202
COc1ccc(CCNc2cc(-c3ccccc3)nc3ncnn23)cc1 | -0.536
CSc1ccccc1NC(=O)CO/N=C(\C)c1cc2ccccc2o1 | -0.724
CCc1ccccc1NC(=O)Cn1nnc(-c2cccnc2)n1 | -0.0205
CCCCN=C1NN=C(c2cc3ccccc3o2)CS1 | -0.261
CCN(CC)C(=O)C1CCCc2c1[nH]c1ccc(Cl)cc21 (stereo unspecified) | -0.403
CC1=NN(C(=O)c2ccc(Cn3nc(C)c(Br)c3C)cc2)C(O)(C(F)(F)F)C1 (stereo unspecified) | -0.331

SMILES | z-score
CCOC(=O)N/N=C/c1cn(CCCOc2ccccc2)c2ccccc12 | -0.0587
CC1=NN(C(=O)c2ccc(C)cc2)C(O)(C(F)(F)OC(F)(F)F)C1 (stereo unspecified) | -0.0203
c1ccc(CSC2=NCCCN2)cc1 | 0.34
CCOC(=O)CSc1ncnc2c1c(-c1ccccc1)cn2-c1ccc(OC)cc1 | -0.583
COc1ccccc1NC(=O)c1c(C)oc2c1CCCC2 | -0.554
CN(C(=O)CCc1nc2ccccc2s1)c1ccccc1 | -0.0525
CN1CCC(OC(=O)c2ccc(Br)cc2)CC1 | -0.113
O=C(CN(CCc1ccccc1)S(=O)(=O)c1ccc(Br)cc1)N/N=C/c1ccc2c(c1)OCO2 | -0.139
O=C(NNC(=S)Nc1ccc(Br)cc1)c1ccc(N2CCOCC2)c([N+](=O)[O-])c1 | -1.93
Cc1onc(-c2c(Cl)cccc2Cl)c1C(=O)NC(C)(C)CO | -0.202
COc1ccc(C(=O)NCc2ccc(C)cc2)cc1S(=O)(=O)N1CCCc2ccccc21 | -0.351
CCSc1nnc(N2C(=O)CC(c3ccsc3)C3=C2CC(C)(C)CC3=O)s1 (stereo unspecified) | -0.747
CNC(=S)N1CCN(c2cccc(OC)c2)CC1 | 0.273
Nc1nnc(-c2ccncc2)s1 | -0.445
CCc1cc2c(Sc3nc4ccccc4s3)ncnc2s1 | 0.273
O=C(COc1ccc(S(=O)(=O)NC2CCCCC2)cc1Cl)N1CCN(c2ccccc2)CC1 | 1.16
CCc1ccc(N2C(=O)C3ON(c4ccccc4)C(c4ccco4)C3C2=O)cc1 (stereo unspecified) | 0.783
FC(F)(F)c1cnc(-n2cc[nH]c2=S)c(Cl)c1 | -0.000676
CCOP(=O)(OCC)C(Nc1ccccc1)c1cc(OC)ccc1OC (stereo unspecified) | -0.141
COc1ccccc1C1C(C#N)=C(N)Oc2c1c(-c1ccccc1)nn2-c1ccccc1 (stereo unspecified) | -0.457
Cc1ccc(C2=N/C(=C\c3c(C)nn(-c4ccccc4)c3N3CCCC3)C(=O)O2)cc1 | -0.297
CN1CCN(c2nc3c(c(=O)[nH]c(=O)n3C)n2CCSc2nc3ccccc3s2)CC1 | -0.222
Cc1ccc(Cc2nnc3n(-c4cccc(C)c4)nc(C(=O)c4ccccc4)n3c2=O)cc1 | -0.00526
Cc1cc(C)c(-c2csc(NC(=O)c3n[nH]c(=O)c4ccccc34)n2)c(C)c1 | 0.145

SMILES | z-score
CC(C)(C)C(=O)Nc1ccc2c(c1)-c1cc(NC(=O)C(C)(C)C)ccc1C2 | -0.213
CC1CCC(NC(=O)C2c3ccccc3C(=O)N2Cc2cccs2)CC1 (stereo unspecified) | -0.154
COc1cccc(NS(=O)(=O)c2ccc3[nH]cc(C(=O)NCCC(C)C)c(=O)c3c2)c1 | 0.0351
CC1(C)CC(=O)C(C(=O)/C=C/NCCc2ccccc2)C(=O)C1 | -0.72
CCCCC(=O)N1CCCC(c2nc3c(nnn3Cc3cc(C)ccc3C)c(=O)[nH]2)C1 (stereo unspecified) | active: -3.3
CCNC(=O)CSc1nnc(-c2cccc(S(=O)(=O)N(CC)CC)c2)n1CCc1ccccc1 | -0.141
CCOC(=O)Cc1csc(SCC(=O)Nc2cc(Cl)ccc2Oc2ccccc2)n1 | -0.0682
Cc1cccc(NC(=O)CSc2nnc(C)c(=O)n2N)c1C | -0.154
Cc1cc(NC(=O)c2ccc(N(C)S(=O)(=O)c3ccccc3)cc2)no1 | -0.456
O=C(c1ccco1)N(Cc1cc2ccccc2[nH]c1=O)CC1CCCO1 (stereo unspecified) | -0.102
COCCSc1ccccc1C(=O)Nc1ccc(Cl)cn1 | -0.0354
CC(=O)c1ccc(OC(=O)CCN2c3ccccc3Sc3ccccc32)cc1 | -0.68
Cc1ccc(NC(=O)Nc2ccc3c(c2)N(C)C(=O)CS3)cc1C | -1.14
COCc1cc(=O)[nH]c(/N=C(\N)Nc2ccccc2C)n1 | -0.075
N#Cc1ccsc1NC(=O)CN1CCN(c2ccccn2)CC1 | -0.0277
c1ccc(-c2nc3ccccc3c3nc4ccccc4n23)cc1 | -0.47
Cc1ccc2c(c1)CCCN2C(=O)c1cccs1 | -1.65
C1CCN=C(Nc2nc3c(s2)CCCC3)CC1 | 0.048
CC(=O)N(Cc1cc(=O)[nH]c2ccccc12)c1ccc(C)cc1 | 0.534
COc1cc(C(=S)N2CCC(C)CC2)ccc1O | -0.0658
CCOC(=O)Cn1c(=O)oc2cc(S(=O)(=O)NCCc3ccc(C)cc3)ccc21 | -0.171
Cc1nn(C)c(C)c1N1C(=O)c2cccc3c(Br)ccc(c23)C1=O | -0.96
O=C(Nc1ccc(N2CCOCC2)c2nonc12)C1CCCC1 | 0.00981
